In publication PMC4336329 (PLoS ONE, 2015):
Among all 310,000 compounds or so, about 2,200 (0.71%) showed an effect of 50% or more. The effect is printed as a negative number. This is one part of the list.

molecular target: human ether-à-go-go-related gene (hERG) potassium channel (human, UniProt Q12809); assay: primary screen, population patch clamp on CHO cells stably expressing hERG
Sequence (Q12809 whole entry, looked up): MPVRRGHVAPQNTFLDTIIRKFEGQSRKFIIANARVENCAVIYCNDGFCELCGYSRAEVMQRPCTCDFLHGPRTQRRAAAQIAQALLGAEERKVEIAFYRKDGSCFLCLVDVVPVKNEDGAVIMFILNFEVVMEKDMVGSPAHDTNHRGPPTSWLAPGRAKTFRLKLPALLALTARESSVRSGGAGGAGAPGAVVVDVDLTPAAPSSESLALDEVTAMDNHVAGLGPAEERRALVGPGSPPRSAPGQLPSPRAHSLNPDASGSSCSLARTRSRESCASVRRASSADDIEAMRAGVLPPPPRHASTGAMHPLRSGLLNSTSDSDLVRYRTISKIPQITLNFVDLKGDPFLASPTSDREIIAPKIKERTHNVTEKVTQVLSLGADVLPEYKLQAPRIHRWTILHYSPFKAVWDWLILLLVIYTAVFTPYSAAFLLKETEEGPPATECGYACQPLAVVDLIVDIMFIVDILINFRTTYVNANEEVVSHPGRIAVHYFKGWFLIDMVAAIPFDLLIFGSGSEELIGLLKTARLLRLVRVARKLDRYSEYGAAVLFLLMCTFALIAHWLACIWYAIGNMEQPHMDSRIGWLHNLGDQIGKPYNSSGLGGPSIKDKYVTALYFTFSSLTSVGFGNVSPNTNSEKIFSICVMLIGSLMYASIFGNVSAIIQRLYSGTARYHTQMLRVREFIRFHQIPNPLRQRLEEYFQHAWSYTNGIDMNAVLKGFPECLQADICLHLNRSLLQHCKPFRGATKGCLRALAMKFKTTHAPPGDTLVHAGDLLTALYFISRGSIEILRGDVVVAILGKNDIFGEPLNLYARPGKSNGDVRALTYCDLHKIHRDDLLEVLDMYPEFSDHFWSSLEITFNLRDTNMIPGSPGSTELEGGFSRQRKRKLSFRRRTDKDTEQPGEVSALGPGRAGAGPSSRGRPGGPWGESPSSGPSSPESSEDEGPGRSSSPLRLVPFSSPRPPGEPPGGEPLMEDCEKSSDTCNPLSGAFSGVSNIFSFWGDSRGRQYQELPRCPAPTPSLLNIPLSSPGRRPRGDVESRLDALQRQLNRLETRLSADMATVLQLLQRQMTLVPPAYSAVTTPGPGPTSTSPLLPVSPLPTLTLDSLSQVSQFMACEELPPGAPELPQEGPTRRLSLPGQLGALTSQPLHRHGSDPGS

Row | Compound | hERG current change (%, negative = inhibition) at 1uM [%]
1 | O=C(COC(=O)c1cnc(Cl)c(Cl)c1)NC1CCCCCC1 | 13.7
2 | COc1cccc(OCCSc2nc(N)cc(N)n2)c1 | 2.02
3 | O=C(Nc1cccc(-c2nnco2)c1)c1cccs1 | 7.86
4 | COc1cc(C)c(Br)cc1S(=O)(=O)NCc1cccs1 | -13.7
5 | COc1cccc(CC(=O)NNC(=O)c2ccc3c(c2)OCO3)c1 | 1.97
6 | CCOC(CCn1c(SCc2ccc([N+](=O)[O-])cc2)nc2ccccc2c1=O)OCC | 4.07
7 | Cc1cc(NC(=O)CCC(=O)N(CC(=O)NC2CCCC2)Cc2ccc(F)cc2)no1 | 8.48
8 | CCc1ccc(S(=O)(=O)NCc2csc(C)n2)cc1 | 7.86
9 | CC(=O)N1CCN(CCN=CC2=C(O)CC(C)(C)CC2=O)CC1 | 8.18
10 | CC(Sc1nnc(COc2ccc(Cl)cc2)n1Cc1ccccc1)C(=O)O (stereo not shown) | 8.19
11 | CCCN(CC(=O)Nc1cc(Cl)ccc1Cl)C(=O)c1ccccc1SCC(=O)N1CCCC1 | 3.82
12 | CC1(C)CC(=O)C2=C(C1)OC(c1ccncc1)C(C#N)=C2N (stereo not shown) | -4.07
13 | CS(=O)(=O)N(Cc1ccccc1)c1ccc(C(=O)Nc2ccc(C(N)=O)cc2)cc1 | 13.9
14 | Cc1cc(=O)[nH]n(CCO)c1=O | 5.37
15 | O=C(COc1ccccc1Br)N1CCN(C(=O)c2cccs2)CC1 | -1.69
16 | Cc1ccc(NC(=O)CSc2nccn2Cc2ccco2)cc1 | 12.8
17 | COc1ccc(NC(=O)CSc2nncn2C)c([N+](=O)[O-])c1 | 7.17
18 | CC1Cc2ccccc2N1C1=NS(=O)(=O)c2ccccc21 (stereo not shown) | 11.7
19 | COc1cccc(OC)c1C(=O)Nn1c(-c2cccs2)nc2ccccc2c1=O | 3.68
20 | Cc1cc(NC(=O)c2c(-c3ccccc3Cl)noc2C)no1 | 8.68
21 | Cc1ccc(S(=O)(=O)NNC(=O)Nc2ccc(Cl)cc2)cc1 | 6.73
22 | CCOc1ccccc1NC(=O)COC(=O)CC(NC(N)=O)c1ccc(Cl)cc1 (stereo not shown) | -44.4
23 | COCCNC(=O)c1ccccc1NC(=O)c1ccc(Cl)c(S(=O)(=O)Nc2ccc(C)cc2C)c1 | 6.85

Row | Compound | hERG current change (%, negative = inhibition) at 1uM [%]
24 | N#Cc1ccc(COC(=O)c2ccccn2)cc1 | 10.3
25 | O=C(NN1CCCCC1)c1cccc2ccccc12 | 14.3
26 | COc1ccccc1NC(=O)c1c(NC(=O)CCC(=O)O)sc2c1CCCCC2 | 13.7
27 | Cc1ccsc1C=Nc1ccc(O)cc1 | 5.79
28 | Cc1ccc(-c2nnc(SCC(N)=O)nc2-c2ccc(C)cc2)cc1 | 6.23
29 | COC(=O)C1=C(C)N(C(C)C)C(=O)C1(NC(C)=O)C(F)(F)F (stereo not shown) | 4.86
30 | CC(C)(C)C(=O)Nc1c(Br)c(C2CC2)nn1-c1ccccc1 | 12.7
31 | O=S(=O)(c1ccc(S(=O)(=O)N2CCOCC2)cc1)N1CCCC1 | 14.7
32 | CCCCNc1nc2ccccc2n1CC(=O)N1CCc2ccccc2C1 | -6.59
33 | CCc1nnc(NC(=O)CSc2nnc(COc3ccccc3C)o2)s1 | 16
34 | CC1=C(C(=O)NC(C)CCc2ccccc2)C2(CCC(C)CC2)OC1=O (stereo not shown) | 6.66
35 | O=C(COc1cccc2ccccc12)Nc1ccc(Cl)cc1C(=O)O | 15.5
36 | N#Cc1c(-c2ccc(Br)cc2)nc2n(c1=O)CCCS2 | 16.5
37 | O=C1c2ccccc2C(=O)N1CCc1c[nH]c2ccc(O)cc12 | 11.4
38 | CCn1c(SCC(=O)N2CCc3ccccc32)nnc1-c1ccncc1 | 10
39 | CCC1CSC(Nc2ccc(C(=O)/C=C/c3ccc(OC)c(OC)c3)cc2)=N1 (stereo not shown) | -0.602
40 | COc1cc(C(C)=O)ccc1OCC(=O)Nc1ccc2nc(C)sc2c1 | 13.9
41 | CCCn1c(=O)c2c(nc3n2CCCN3Cc2ccccc2)n(C)c1=O | -3.54
42 | O=S(=O)(Nc1ccc2c(c1)CCC2)c1cccs1 | -4.89
43 | Cn1cc(P(=O)(N2CCOCC2)N2CCOCC2)cc1P(=S)(N1CCOCC1)N1CCOCC1 | 17
44 | c1ccc(CNc2nc(-c3ccccn3)nc3ccccc23)cc1 | 1.64
45 | COc1ccccc1C(=O)c1c(C)c(CCC#N)n2ccccc12 | 5.71
46 | CCc1cccc(CC)c1NC(=O)COc1ccccc1C(=O)c1cc(C#N)c(=O)n(C2CCCCC2)c1 | 4.98

Row | Compound | hERG current change (%, negative = inhibition) at 1uM [%]
47 | CCC(C)(C)C(=O)O | 10.2
48 | N#Cc1ccccc1S(=O)(=O)N1CCN(C(=O)C2CCC2)CC1 | 8.39
49 | CC(C)C(=O)NC(=S)Nc1ccc(S(=O)(=O)N(C)Cc2ccccc2)cc1 | 9.29
50 | Cc1cc(C)c(NC(=O)CNC(=O)COC(=O)C2CCN(c3ccc(C(F)(F)F)cn3)CC2)c(C)c1 | 7.67
51 | CNCc1ccccc1OCc1ccc(F)cc1.Cl | 13.4
52 | COc1ccc(-c2[nH]ncc2CN(C)Cc2c(C)n[nH]c2C)c(OC)c1 | 11.3
53 | CCCCOc1ccc(NC(=O)c2cc(F)c(F)cc2Cl)cc1 | 10.1
54 | O=C(NC1CCCCC1)C1CCN(c2cnccn2)CC1 | 14.8
55 | O=c1c2ccccc2nc(SCc2ccccc2Cl)n1Cc1ccccc1 | 6.18
56 | Cc1nnc(SCCC(C)C)[nH]c1=O | 14
57 | O=C(NCC(c1cccnc1)N1CCOCC1)Oc1ccccc1 (stereo not shown) | 2.83
58 | O=C(Nc1ccc(N2CCOCC2)cc1)C1CCN(S(=O)(=O)c2ccccc2F)CC1 | 7.24
59 | O=C(NC(=S)N(CCO)Cc1ccccc1)c1cc(Br)ccc1Cl | 13.8
60 | COC(=O)c1sccc1NC(=S)N1CCN(c2cccc(C)c2C)CC1 | -4.55
61 | CCN(CC(=O)Nc1c(F)cccc1F)C(=O)C1COc2ccccc2O1 (stereo not shown) | 5.09
62 | CC(=O)c1ccccc1Oc1cc(NN2CCCCC2)c([N+](=O)[O-])cc1[N+](=O)[O-] | 8.88
63 | CC(=O)OCn1ncc(N2CCOCC2)c(Br)c1=O | 12.9
64 | COC(=O)Nc1ccc(S(=O)(=O)N2CCCc3ccccc32)cc1 | 17.4
65 | C[C@H]1CCC(=O)N(CCSc2ccc(Br)cc2)CC1 | 8.63
66 | Cc1ccc(S(=O)(=O)Nc2ccc(S(=O)(=O)NCC3CCCO3)cc2)cc1 (stereo not shown) | 17.3
67 | COc1ccc(-c2nc(C#N)c(N3CCN(c4ccccc4)CC3)o2)cc1 | 10.2
68 | CCOC(=O)CSC1=NC(=O)CS1 | 12.4
69 | CC(OC(=O)c1ccccc1C(=O)N(C)c1ccccc1)C(=O)Nc1ccccc1[N+](=O)[O-] (stereo not shown) | -4.16

Row | Compound | hERG current change (%, negative = inhibition) at 1uM [%]
70 | O=C(OCc1cccc2ccccc12)C1CC(=O)N(c2ccccc2)C1 (stereo not shown) | 7.98
71 | COc1cccc(C2CC(c3ccc(C(C)C)cc3)n3nc(N)nc3N2)c1 (stereo not shown) | 3.49
72 | O=C1/C(=C/c2ccc(F)cc2)SC(=S)N1N1CCOCC1 | 13.3
73 | CCOc1ccc(NC(=O)N2CCC(c3nc4ccccc4o3)CC2)cc1 | 10.3
74 | COc1ccc(SC[C@H](Cc2ccccc2)N2CCN(C)CCC2=O)cc1 | -13.2
75 | CCOc1ccc(CC(=O)NC2CCN(Cc3ccccc3)CC2)cc1 | 5.5
76 | Cc1ccc(Cn2nnnc2CN2CCC(NC(=O)c3ccccc3F)CC2)cc1 | -8.48
77 | CC1CN(CCS(=O)(=O)c2cc(Cl)ccc2Cl)CC(C)O1 (stereo not shown) | 9.16
78 | CCCCN(Cc1ccccc1)C(=O)C1CCN(Cc2sccc2C)CC1.O=C(O)C(=O)O | -35.7
79 | COc1ccc(/C(N)=N/OC(=O)CCCN2C(=O)c3ccccc3C2=O)cc1OC | 3.99
80 | O=C(Cc1ccc(Cl)cc1)Nc1ccc(-c2nnc(-c3ccco3)o2)cc1 | 14.8
81 | Br.CC(=O)Nc1nc(C)c(-c2csc(Nc3ccccn3)n2)s1 | 14.2
82 | O=S(=O)(NCC(c1cccnc1)N1CCOCC1)c1cccs1 (stereo not shown) | 3.45
83 | CC(=O)c1c(COC(=O)c2ccc(C)cc2)nc2ccccc2[n+]1[O-] | 8.04
84 | COc1ccc(C(=O)/C=C/c2ccc(OC)c(COc3ccc(F)cc3)c2)cc1 | 9.29
85 | COc1ccc(C(=O)n2nc(C)c(Br)c2C)cc1OC | 10.9
86 | CCC(O)CNc1nc(-n2nc(C)cc2C)nc2sc3c(c12)CC(C)(C)OC3 (stereo not shown) | 11.2
87 | CC(C)(C)c1ccc(C(=O)N/C(=C\c2ccco2)C(=O)O)cc1 | 10.6
88 | COc1cccc(/C=N/Nc2ccc([N+](=O)[O-])cc2)c1O | 12.6
89 | CC1=[N+](CC(=O)NC(C)(C)C)CCc2ccccc21.[Cl-] | 17.5
90 | COc1ccc(N(CC(=O)NCCSC2CCCCC2)S(C)(=O)=O)c(OC)c1 | -1.96
91 | O=C(CN1C(=O)NC2(CCCCC2)C1=O)Nc1cc(C(F)(F)F)ccc1N1CCCCC1 | 5.79
